Whole data set: some 81,000 sequences, median “one-hybrid fitness for binding parS DNA” near -0.17, cut for the highest 2% near 0.51. This is one part of the list.
B1: Caulobacter ParB omega fusion; a variant is named by its letters at X, in order, B8GW30 (parent)
chain: MESVVVGEPGMSEGRRGLGRGLSALLGEVDAAPAQAPGEQLGGSREAPIEILQRNPDQPRRTFREEDLEDLSNSIREKGVLQPILVRPSPDTAGEYQIVAGERAWRAAQRAGLKTVPIMVRELDDLAVLEIGIIENVQRADLNVLEEALSYKVLMEKFERTQENIAQTIGKSXSHVANXMRLLXLPDEVQSYLVSGELTAXHARAIAAAADPVALAKQIIEGGLSVRETEALARKAPNLSAGKSKGGRPPRVKDTDTQALESDLSSVLGLDVSIDHRGSTGTLTITYATLEQLDDLCNRLTRGI

Variants of: B1
Assay: one-hybrid fitness for binding parS DNA (scaled: cognate 1, non-cognate 0); higher = stronger binding
Conditions: with parS DNA site
Outline: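 In E. coli USO, a HIS3 reporter with its site placed 19 bp from the promoter was used to select Caulobacter ParB variants randomised at four specificity codons. Growth lasted 48 hours at 37°C on histidine-free M9 containing 0.1 mM IPTG and 5 mM 3-AT. Fitness was taken as the log change in variant-to-wild-type read ratio from Illumina sequencing of pre- and post-selection plasmids, rescaled between the non-cognate and cognate sites.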

Variant | one-hybrid fitness for binding parS DNA
TRCM | ≤ 0.2
EPCG | ≤ 0.2
VHNS | ≤ 0.2
RWGG | 0.63
QLMA | ≤ 0.2
HVNI | ≤ 0.2
RRSQ | ≤ 0.2
RAIW | ≤ 0.2
MLMS | ≤ 0.2
TNRA | ≤ 0.2
ESLC | ≤ 0.2
RIMS | 1.04
YAMS | ≤ 0.2
DLAV | ≤ 0.2
ILML | ≤ 0.2
QDIS | ≤ 0.2
TRPE | ≤ 0.2
HLHY | ≤ 0.2
SGYF | ≤ 0.2
RCNW | 0.257
LYIL | ≤ 0.2
HYRR | ≤ 0.2
YKGD | ≤ 0.2
GGHG | ≤ 0.2
PFLE | ≤ 0.2

Variant | one-hybrid fitness for binding parS DNA
YACP | ≤ 0.2
KNPF | ≤ 0.2
TTAW | ≤ 0.2
LVDV | ≤ 0.2
QLLK | ≤ 0.2
LTKK | ≤ 0.2
QASS | ≤ 0.2
LGQD | ≤ 0.2
KAEN | ≤ 0.2
DAKM | ≤ 0.2
GPGT | ≤ 0.2
KFKM | ≤ 0.2
NKSY | ≤ 0.2
ILGG | ≤ 0.2
VPTP | ≤ 0.2
PTMN | ≤ 0.2
MYGS | ≤ 0.2
AGHL | ≤ 0.2
LSDN | ≤ 0.2
YAQL | ≤ 0.2
AMEI | ≤ 0.2
WRNV | ≤ 0.2
DLLQ | ≤ 0.2
SHAM | ≤ 0.2
EPLA | ≤ 0.2

Variant | one-hybrid fitness for binding parS DNA
MKLI | ≤ 0.2
CSNY | ≤ 0.2
DHAC | ≤ 0.2
VMER | ≤ 0.2
HSSA | ≤ 0.2
ARFT | ≤ 0.2
FDNG | ≤ 0.2
AKGY | ≤ 0.2
MANR | ≤ 0.2
RNQA | 0.489
TPSI | ≤ 0.2
KPNR | ≤ 0.2
VYPW | ≤ 0.2
VYYM | ≤ 0.2
DRDI | ≤ 0.2
PLFF | ≤ 0.2
SHRY | ≤ 0.2
RSEA | 0.476
RTYG | 1.02
GDTT | ≤ 0.2
PHSG | ≤ 0.2
KLGH | ≤ 0.2
HENG | ≤ 0.2
PCVP | ≤ 0.2
KPEK | ≤ 0.2

Variant | one-hybrid fitness for binding parS DNA
ISFG | ≤ 0.2
RQRY | 0.504
QPQL | ≤ 0.2
TGYY | ≤ 0.2
VNTG | ≤ 0.2
DSLC | ≤ 0.2
LGKL | ≤ 0.2
PRFL | ≤ 0.2
KCAL | ≤ 0.2
NDKV | ≤ 0.2
ATCL | ≤ 0.2
DKVT | ≤ 0.2
AVPL | ≤ 0.2
QPHT | ≤ 0.2
ADDT | ≤ 0.2
KRKY | ≤ 0.2
WTMT | ≤ 0.2
QLAS | ≤ 0.2
GDPG | ≤ 0.2
RHCS | 0.938
FNVS | ≤ 0.2
CSLW | ≤ 0.2
YKDF | ≤ 0.2
ANGP | ≤ 0.2
TLKG | ≤ 0.2

Variant | one-hybrid fitness for binding parS DNA
RIGR | ≤ 0.2
QQHG | ≤ 0.2
WLWG | ≤ 0.2
RHCD | ≤ 0.2
NGQT | ≤ 0.2
QSKM | ≤ 0.2
RDTF | ≤ 0.2
RHQN | 0.382
TSRM | ≤ 0.2
LKAK | ≤ 0.2
VTGN | ≤ 0.2
YVTR | ≤ 0.2
SHRM | ≤ 0.2
SINV | ≤ 0.2
FQLS | ≤ 0.2
QLQI | ≤ 0.2
GKIT | ≤ 0.2
WTTS | ≤ 0.2
SVIC | ≤ 0.2
GRDH | ≤ 0.2
YECC | ≤ 0.2
RVHI | ≤ 0.2
LRST | ≤ 0.2
KLMN | ≤ 0.2
TVDV | ≤ 0.2

Variant | one-hybrid fitness for binding parS DNA
QQNH | ≤ 0.2
MVKL | ≤ 0.2
VMLR | ≤ 0.2
TTKI | ≤ 0.2
PVLN | ≤ 0.2
ATIN | ≤ 0.2
TPVC | ≤ 0.2
LPCC | ≤ 0.2
LRQS | ≤ 0.2
TGTG | ≤ 0.2
TMIV | ≤ 0.2
HKEC | ≤ 0.2
YFCS | ≤ 0.2
KEPR | ≤ 0.2
GDAL | ≤ 0.2
EFNS | ≤ 0.2
KKNI | ≤ 0.2
HICS | ≤ 0.2
RWIL | ≤ 0.2
VEYW | ≤ 0.2
TDYY | ≤ 0.2
DKKR | ≤ 0.2
ECGG | ≤ 0.2
VFQE | ≤ 0.2
TLAH | ≤ 0.2

Variant | one-hybrid fitness for binding parS DNA
LGNF | ≤ 0.2
NKRY | ≤ 0.2
EPIY | ≤ 0.2
GSES | ≤ 0.2
TECW | ≤ 0.2
EVTR | ≤ 0.2
YLKV | ≤ 0.2
QSQW | ≤ 0.2
YRYW | ≤ 0.2
VKSR | ≤ 0.2
YYAR | ≤ 0.2
RSVN | 0.342
QFIS | ≤ 0.2
PHVF | ≤ 0.2
LWRN | ≤ 0.2
NSHR | ≤ 0.2
ARAS | ≤ 0.2
RCWS | 1.09
HPNI | ≤ 0.2
TESV | ≤ 0.2
VSKT | ≤ 0.2
GHPC | ≤ 0.2
DPMM | ≤ 0.2
IYVV | ≤ 0.2
LKSH | ≤ 0.2

Variant | one-hybrid fitness for binding parS DNA
IFNS | ≤ 0.2
WHGK | ≤ 0.2
QSNG | ≤ 0.2
VKHR | ≤ 0.2
FDEG | ≤ 0.2
QIWT | ≤ 0.2
TYVH | ≤ 0.2
QYGK | ≤ 0.2
IHMM | ≤ 0.2
PSFT | ≤ 0.2
VPDC | ≤ 0.2
WGCS | ≤ 0.2
KYAG | ≤ 0.2
NKTG | ≤ 0.2
WPNR | ≤ 0.2
AKEK | ≤ 0.2
NFTQ | ≤ 0.2
PEMM | ≤ 0.2
YYNE | ≤ 0.2
SGSG | ≤ 0.2
